Among the data in PubChem BioAssay AID1963848 (Molecular Pharmacology Branch, DTP, NCI, 2024) are viability, T/C values, retold here.

For this experiment, the system named is 379773-124-R-J2-PDC spheroid viability. Nature of the experiment: Anticancer human tumor 379773-124-R-J2-PDC patient-derived endometrial carcinoma cell line growth inhibition [POLQ]. The note with it: stronger effect = lower value, spheroids with HUVEC and MSC. As to the method:
Multicellular complex tumor spheroid response to Polymerase (POL) inhibitors (novobiocin, ART-558, RP6685) in combination with a variety of drugs and investigational agents in selected tumor cell lines
The POL inhibitors (novobiocin, ART-558, and RP6685) were evaluated both individually and in combination with standard of care and investigational anticancer small molecules within a complex spheroid model of solid tumors. . Complex spheroids include a stromal component modeled by human endothelial cells (HUVEC) and fibroblasts modeled by human mesenchymal stem cells (MSCs). The concentration ranges selected for each drug and investigational agent were based upon clinically achievable concentrations if the clinical Cmax of the agent was known.
Compounds. […] If the clinical Cmax for an agent had not been determined, the highest concentration tested was 10 microM, except for SN-38, which was tested at a high concentration of 1 microM. […]

SMILES strings stand for the structures. A number of entries come with more than one value. This list holds those alone. An entry can have further records. The records of an entry are repeats across runs, samples, wells, individuals or studies.
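Also: spheroids exposed to drugs for seven days before readout; percent viability relative to DMSO vehicle control taken as 100%.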

On to `COC1C(OC(N)=O)C(O)C(Oc2ccc3c(O)c(NC(=O)c4ccc(O)c(CC=C(C)C)c4)c(=O)oc3c2C)OC1(C)C` (configuration not stated), for which the viability, T/C (in general, the ratio of treated to control) reads like this: (compound alone 0.1 µM) 85.8, 90.3, 85.7, 88.3, 77.4, 72.8, 86.3, 84.3, 78.4, 97.9, 99, 87.6, 93.5%; (compound alone 1 µM) 101, 86, 78, 96.6, 86.5, 92.9, 73.6, 86.8, 94.5, 87, 92.1, 104, 88.6%.
